Assay results: the supplement of paper PMC12217912
Some of the results follow. Sequences were assembled here from the parent chain. Inactive controls read about 0.05.

B1: TEV protease; numbered along this chain (parent)
chain: MGESLFKGPRDYNPISSSICHLTNESDGHTTSLYGIGFGPFIITNKHLFRRNNGTLVVQSLHGVFKVKDTTTLQQHLVDGRDMIIIRMPKDFPPFPQKLKFREPQREERICLVTTNFQTKSMSSMVSDTSCTFPSGDGIFWKHWIQTKDGQCGSPLVSTRDGFIVGIHSASNFTNTNNYFTSVPKNFMELLTNQEAQQWVSGWRLNADSVLWGGHKVFMVKPEEPFQPVKEATQL

Variants of: B1
Experiment: raw area under fraction-flipped curve 0-4 h after induction (AUC4h, not background-subtracted), DNA-recorder readout of cleavage of the substrate (dimensionless); higher = more cleavage of the substrate by the protease variant
Conditions: temperature: 34 °C; time window: 0-4 h after rhamnose induction
Protocol: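 In vivo DNA recorder in E. coli TOP10(DE3) ΔrhaA at 34 °C. Each TEVp single-site mutant (parent TEVp 0) is paired with a single-site variant of the 7-mer TEVs (canonical ENLYFQ|S). The substrate sits between flexible linkers in a Bxb1-sfGFP-TEVs-SsrA fusion, so cleavage stabilises Bxb1 and speeds flipping of a recombination array, read by NGS. The value is the raw area under the fraction-flipped curve over 0-4 h after rhamnose induction (AUC4h), with ≥20 reads per time point. It is not background-subtracted; inactive controls average about 0.047.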
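Further: Bxb1 expression induced with 0.2% (w/v) L-rhamnose at OD600 near 0.5, cultures sampled hourly, flipped fraction per protease–substrate barcode pair counted by paired-end Illumina sequencing.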

Variant | area with substrate ENLYFQA | area with substrate ENLYFQC | area with substrate ENLYFQD | area with substrate ENLYFQE | area with substrate ENLYFQF | area with substrate ENLYFQG | area with substrate ENLYFQH | area with substrate ENLYFQI | area with substrate ENLYFQL | area with substrate ENLYFQM | area with substrate ENLYFQN | area with substrate ENLYFQQ | area with substrate ENLYFQR | area with substrate ENLYFQS | area with substrate ENLYFQT | area with substrate ENLYFQV | area with substrate ENLYFQW | area with substrate ENLYFQY | area with substrate ENLYFQK | area with substrate ENLYFQP
MGESLFKGPRDYNPISSSICHLTNESDGHTTSLYGIGFGPFIITNKHLFRRNNGTLVVQSLHGVFKVKDTTTLQQHLVDGRDMIIIRMPKDFPPFPQKLKFREPQREERICLVTTNFQTKSMSSMVSDTSCTFPSGDGIFWKHWIQTKDGQCGSPLVSTRDGFIVGIHSASNFTNTNNYFTSVPKNFMELLTNQEAQQWVSGWRLNADSVLWGGHKVFMVKPEEPFQPVKEATQM [L235M] | 0.0901 | 0.117 | 0.0624 | 0.0804 | 0.0869 | 0.0864 | 0.074 | 0.0569 | 0.07 | 0.0765 | 0.0658 | 0.0736 | 0.0645 | 0.103 | 0.0589 | 0.0546 | 0.0744 | 0.0858 | – | –
MGESLFKGPRDYNPISSSICHLTNESDGHTTSLYGIGFGPFIITNKHLFRRNNGTLVVQSLHGVFKVKDTTTLQQHLVDGRDMIIIRMPKDFPPFPQKLKFREPQREERICLVTTNFQTKSMSSMVSDTSCTFPSGDGIFWKHWIQTKDGQCGSPLVSTRDGFIVGIHSASNFTNTNNYFTSVPKNFMELLTNQEAQQWVSGWRLNADSVLWGGHKVFMVKPEEPFQPYKEATQL [V229Y] | 0.0908 | 0.113 | – | – | 0.063 | 0.106 | 0.0625 | 0.0839 | 0.0619 | 0.0878 | – | 0.0679 | 0.0382 | 0.0989 | 0.0638 | 0.0329 | 0.0748 | 0.058 | 0.0791 | 0.066
MGESLFKGPRDYNPISSSICHLTNESDGHTTSLYGIGFGPFIITNKHLFRRNNGTLVVQSLHGVFKVKDTTTLQQHLVDGRDMIIIRMPKDFPPFPQKLKFREPQREERICLVTTNFQTKSMSSMVSDTSCTFPSGDGIFWKHWIQTKDGQCGSPLVSTRDGFIVGIHSASNFTNTNNYFTSVPKNFMELLTNQEAQQWVSGWRLNADSVLWGGHKVFMVKPEEPFQPLKEATQL [V229L] | 0.101 | 0.128 | – | 0.0655 | – | 0.115 | – | 0.05 | 0.0535 | 0.0926 | 0.0658 | – | 0.0495 | 0.114 | 0.0598 | – | 0.0771 | 0.0734 | 0.0641 | 0.0571
MGESLFKGPRDYNPISSSICHLTNESDGHTTSLYGIGFGPFIITNKHLFRRNNGTLVVQSLHGVFKVKDTTTLQQHLVDGRDMIIIRMPKDFPPFPQKLKFREPQREERICLVTTNFQTKSMSSMVSDTSCTFPSGDGIFWKHWIQTKDGQCGSPLVSTRDGFIVGIHSASNFTNTNNYFTSVPKNFMELLTNQEAQQWVSGWRLNADSVLWGGHKVFMVKPEEPFQPVKEADQL [T233D] | 0.114 | 0.128 | 0.0719 | 0.0596 | – | – | – | 0.0536 | 0.06 | – | 0.0709 | – | 0.0628 | 0.113 | 0.0675 | 0.051 | 0.0659 | – | 0.0663 | –
MGESLFKGPRDYNPISSSICHLTNESDGHTTSLYGIGFGPFIITNKHLFRRNNGTLVVQSLHGVFKVKDTTTLQQHLVDGRDMIIIRMPKDFPPFPQKLKFREPQREERICLVTTNFQTKSMSSMVSDTSCTFPSGDGIFWKHWIQTKDGQCGSPLVSTRDGFIVGIHSASNFTNTNNYFTSVPKNFMELLTNQEAQQWVSGWRLNADSVLWGGHKVFMVKPEEPFQPVKEASQL [T233S] | 0.118 | 0.117 | 0.0956 | – | 0.0685 | – | – | – | 0.0716 | 0.0956 | – | 0.0816 | – | 0.103 | – | 0.0675 | – | 0.0873 | 0.0627 | –
MGESLFKGPRDYNPISSSICHLTNESDGHTTSLYGIGFGPFIITNKHLFRRNNGTLVVQSLHGVFKVKDTTTLQQHLVDGRDMIIIRMPKDFPPFPQKLKFREPQREERICLVTTNFQTKSMSSMVSDTSCTFPSGDGIFWKHWIQTKDGQCGSPLVSTRDGFIVGIHSASNFTNTNNYFTSVPKNFMELLTNQEAQQWVSGWRLNADSVLWGGHKVFMVTPEEPFQPVKEATQL [K221T] | 0.0922 | 0.0971 | 0.0602 | – | – | – | 0.0754 | 0.0485 | 0.0532 | 0.0634 | 0.0681 | – | 0.0605 | 0.0974 | 0.0541 | 0.0448 | – | – | – | 0.061
MGESLFKGPRDYNPISSSICHLTNESDGHTTSLYGIGFGPFIITNKHLFRRNNGTLVVQSLHGVFKVKDTTTLQQHLVDGRDMIIIRMPKDFPPFPQKLKFREPQREERICLVTTNFQTKSMSSMVSDTSCTFPSGDGIFWKHWIQTKDGQCGSPLVSTRDGFIVGIHSASNFTNTNNYFTSVPKNFMELLTNQEAQQWVSGWRLNADSVLWGGHKVFMVYPEEPFQPVKEATQL [K221Y] | 0.0967 | 0.11 | – | – | 0.0356 | 0.133 | – | 0.0618 | 0.0562 | 0.0746 | 0.0747 | 0.0489 | 0.116 | 0.0976 | 0.0807 | 0.0561 | 0.0534 | 0.0659 | 0.0766 | –
MGESLFKGPRDYNPISSSICHLTNESDGHTTSLYGIGFGPFIITNKHLFRRNNGTLVVQSLHGVFKVKDTTTLQQHLVDGRDMIIIRMPKDFPPFPQKLKFREPQREERICLVTTNFQTKSMSSMVSDTSCTFPSGDGIFWKHWIQTKDGQCGSPLVSTRDGFIVGIHSASNFTNTNNYFTSVPKNFMELLTNQEAQQWVSGWRLNADSVLWGGHKVFMVNPEEPFQPVKEATQL [K221N] | 0.0968 | 0.105 | 0.0698 | – | – | 0.126 | 0.074 | 0.062 | 0.0594 | 0.0776 | 0.0845 | – | 0.0653 | 0.103 | 0.0573 | 0.0514 | 0.0606 | – | 0.0586 | 0.0822
